Measurements as given in PubChem BioAssay AID1347417 (National Center for Advancing Translational Sciences (NCATS), 2020).
Hit rate of the full screen: of about 120,000 compounds, about 5,300 (4.4%) were called active. Inconclusive results, whose numbers are uncertain, are shown with a selection of clear calls. The call rests on the fitted dose curve; in most records, active means well fitted inhibition curve with a large enough effect; inconclusive means small, poorly fitted or top-dose-only effect; inactive means no such curve, though single readings can be large or run the other way. A potency beside an inconclusive call is a rough fit, not a confirmed value.

Assay: qHTS Primary assay for Inhibitors of Plasmodium falciparum Dd2 growth in vitro; further: nearly all actives have a fitted effect of over 65% in size;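 on activity, negative = inhibition: plate controls were DMSO vehicle for no effect and reference drug for full effect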
Conditions: P. falciparum Dd2 growth, SYBR Green, 72 h; activity, negative = inhibition: at 28.9 µM (top of the series) unless noted; series mostly up to 28.9 µM
In short: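 Infected erythrocytes (Dd2, 0.3% parasitemia, 2.5% hematocrit final) are added to compound in RPMI-1640/Albumax II medium, grown 72 h at 37C in low oxygen, then lysed with saponin/Triton-X containing SYBR Green and read by fluorescence.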
Potency means the concentration at half of the fitted maximal effect; tags describe the fitted curve by direction and shape.

SMILES	Potency	activity, negative = inhibition	outcome
COc1ccc(CN2Cc3[nH]cnc3C[C@H]2C(=O)NC2CCCCC2)c2ccccc12	active: 11.2 µM	–	–
COc1cccc(CN2CCCC(COc3ccccc3C(=O)NC(C)C)C2)n1 (stereo not given)	inconclusive: 17.8 µM [inhibitor, single point]	–	–
O=C1Cc2c(-c3ccccc3OCc3ccccc3)n[nH]c2CN1CCOc1ccccc1	inconclusive: 1.41 µM [inhibitor, partial curve, poor fit]	–	–
CC(C)(C)C(=O)NC[C@H]1O[C@H](Cc2cc(-c3ccc(F)cc3)on2)CC[C@@H]1O	inconclusive: 20 µM [inhibitor, single point]	–	–
CC(C)c1ccc(S(=O)(=O)Nc2ccc(O)c(Sc3nc4ccccc4s3)c2)cc1	inconclusive: 17.8 µM [inhibitor, single point]	–	–
CN(C)C[C@@H]1CN(S(C)(=O)=O)C[C@H]1NC(=O)c1ccc(Cl)cc1	inconclusive: 4.47 µM [inhibitor, partial curve, poor fit]	–	–
CCC(CC)NC(=O)C1CCCN(C(=O)c2ccccc2)CCC(=O)NCC1 (stereo not given)	–	inactive: -2.93%	–
CCc1ccccc1OCC(=O)c1ccc2c(c1)N(CCCC(=O)N1CCOCC1)C(=O)CO2	–	–	inactive
COc1cccc(Nc2ncc(-c3ccccc3)c3c2OCC3)c1	inconclusive: 31.6 µM [inhibitor, single point]	–	–
O=C(C1CCCC1)N1CCCC(c2nc(C3CCOCC3)no2)C1 (stereo not given)	–	inactive: 6.5%	–
CCCCNC(=O)C1CCCN(c2nnc(C)c3c(C)n(-c4ccc(Cl)cc4)nc23)C1 (stereo not given)	–	inactive: -16%	–
COc1cc2c(=O)c(S(=O)(=O)c3ccc(C)cc3)cn(Cc3cccc(C)c3)c2cc1OC	inconclusive: 11.2 µM [inhibitor, partial curve, poor fit]	–	–
COCCn1ncc(N2CCC(C(=O)NCc3cccc(C(F)(F)F)c3)C2)cc1=O (stereo not given)	inconclusive: 11.2 µM [inhibitor, single point]	–	–
CN1C[C@@H](NC(=O)C2CC2)C[C@H]1c1nc(-c2ccncc2)no1	–	–	inactive [at 44.1 µM]
CCOc1ccc(CC(=O)N2CCC3(CC2)N=C(c2ccc(Cl)cc2)NO3)cc1	inconclusive: 3.98 µM [inhibitor, single point]	–	–
Cc1ccc(Cn2c(SCc3ccc(C(=O)NCCc4ccccc4)cc3)nc3ccncc32)cc1	active: 6.31 µM	–	–
O=C(CC(c1cccc([N+](=O)[O-])c1)c1cn(Cc2ccc(F)cc2)c2ccccc12)N1CCCC1 (stereo not given)	inconclusive: 1.78 µM [inhibitor, partial curve, poor fit]	–	–
COc1ccc2nc3n(c2c1)[C@@H](CNCc1ccc(C#N)cc1)COC3	–	–	inactive [at 44.1 µM]
CC(C)CN(Cc1cccnc1)C1CN(S(=O)(=O)Cc2ccccc2)C1	inconclusive: 17.8 µM [inhibitor, single point]	–	–
COc1ccc(CNC(=O)N2CCCCCC2CN2CCOCC2)cc1 (stereo not given)	inconclusive: 17.8 µM [inhibitor, single point]	–	–

SMILES	Potency	activity, negative = inhibition	outcome
COc1ccc(CN2C(=O)CO[C@H](c3ccc(NC(=O)c4ccccc4OC)cc3)[C@H]2CO)cc1	inconclusive: 11.2 µM [inhibitor, single point]	–	–
Cc1ccccc1Cn1c(=O)n(CCCCC(=O)NCCc2ccccc2)c(=O)c2ccccc21	inconclusive: 6.31 µM [inhibitor, partial curve]	–	–
CCc1ccc(NC(=O)CSC2=Nc3ccccc3C3=NC(CC(=O)NCc4ccc5c(c4)OCO5)C(=O)N23)cc1 (stereo not given)	inconclusive: 3.98 µM [inhibitor, partial curve, poor fit]	–	–
CCOC(=O)c1[nH]c2c(c1Cc1ccccc1)C(=O)CC(c1ccc(OC)cc1)C2 (stereo not given)	active: 11.2 µM	–	–
CO[C@H]1C(=O)N(C2CCN(C(=O)c3cnc(C)cn3)CC2)[C@H]1c1ccncc1	–	inactive: 1.08%	–
OC(c1ccccc1)c1cc2n(n1)CCN(Cc1cncn1C1CC1)C2 (stereo not given)	inconclusive: 3.98 µM [inhibitor, single point]	–	–
CC(C)N1C(=O)C2(CCCC2)C1C(=O)NCCN1CCCCC1 (stereo not given)	inconclusive: 12.6 µM [inhibitor, partial curve]	–	–
COc1ccc(-c2cc(C(=O)NC3CC3)c3c(C4CCCNC4)noc3n2)cc1 (stereo not given)	inconclusive: 11.2 µM [inhibitor, single point]	–	–
O=C(N[C@H]1CCN2C(=O)c3cc(-c4ccc5c(c4)OCO5)ccc3NC(=O)[C@H]12)c1cccc(F)c1	–	–	inactive
O=C1NCCCCCCN(C(=O)c2ccncc2)[C@H]2C[C@H](c3nc(Cc4ccccc4)no3)C[C@@H]12	inconclusive: 3.16 µM [inhibitor, partial curve, poor fit]	–	–
COc1ccc(CNC(=O)c2cc3c(N4CCCC4)nc(C)cn3n2)c(OC)c1	inconclusive: 11.2 µM [inhibitor, single point]	–	–
CCc1ccc2occ(CC(=O)Nc3c(C(=O)Nc4ccc(Cl)cc4)oc4ccccc34)c2c1	inconclusive: 17.8 µM [inhibitor, single point]	–	–
CN(C)CCNC(=O)c1ccc2nc(CCc3ccccc3)oc2c1	–	inactive: 22.7%	–
Cc1cccc(NC(=O)c2ccc3c(c2)N(S(C)(=O)=O)CC3)c1C	inconclusive: 11.2 µM [inhibitor, single point]	–	–
COc1ncccc1-c1nc(-c2c(C)noc2C)cc2cc(C(C)C)oc12	inconclusive: 2.51 µM [inhibitor, partial curve, poor fit]	–	–
O=C(c1cccc(Cl)c1)N1CCC(c2nn(Cc3ccccc3)c(=O)[nH]2)CC1	inconclusive: 0.0708 µM [inhibitor, full curve, poor fit]	–	–
O=[S+]1([O-])NCC2(CCN(CC3CC3)CC2)Nc2ccccc21	inconclusive: 1.26 µM [inhibitor, full curve, poor fit]	–	–
CCCc1noc(-c2ccn3c(CNC(=O)Cc4cccc(F)c4)nnc3c2)n1	inconclusive: 1 µM [inhibitor, partial curve, poor fit]	–	–
O=C1NCc2ccccc2CC12CCN(Cc1cc(F)ccc1O)C2 (stereo not given)	active: 11.2 µM	–	–
CC(C)C1CNC(Cc2ccccc2)CN1C(=O)OC(C)(C)C (stereo not given)	active: 8.91 µM	–	–
